# ± gives the standard deviation. This is a selection; strong and weak results do not stand in their true shares.
# System: MIWI (PIWIL1) piRISC loaded with L1MC piRNA (30 nt)
# Experiment: pre-steady-state target cleavage rate (min^-1); MIWI and MILI are mouse PIWI proteins and EfPiwi is from a freshwater sponge; tags in brackets are library labels; higher = faster piRNA-guided slicing of the target
# Settings: guide: L1MC piRNA 5'p-UAACUAAAUACUAUGCAAGCUGUAGGUCCU
# Method in brief: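 Cleave-'n-Seq: a transcribed, DNA-blocked target RNA library (0.1 nM) was mixed with 1 nM active affinity-purified piRISC carrying one synthetic guide, with or without 500 nM GTSF1 partner protein, in HEPES–potassium acetate buffer at 33 °C for 0–8 or 0–960 min. Uncleaved targets were sequenced and normalised to depth and to weakly complementary targets. Three trials were pooled, and k3 was capped at 0.0001 min^-1. The pre-steady-state cleavage rate came from a burst-and-steady-state fit.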
# [1] = auxiliary factor: 500 nM mouse GTSF1
# [2] = auxiliary factor: none (no GTSF1)
Sequence,pre-steady-state target cleavage rate [1],pre-steady-state target cleavage rate [2]
UGGACCUACAGCUUGCAUAGUUAUUUAGUUA,0.0473 ± 0.0076,0.00533 ± 0.0021
UCCUGGAACAGCUUGCAUACUAUUUACUUA,0.205 ± 0.03,0.0152 ± 0.0032
UCCUGCUACAGCUUGCAUAGUAUAAUGUUA,0.322 ± 0.029,0.00938 ± 0.003
UCGACCUAGAGCUUGGAUAGUAUUUAGUUA,1.25 ± 0.042,0.0475 ± 0.0077
UGGAGCUACAGCUUGCAUAGUAUUUAGUUA,1.25 ± 0.045,0.0783 ± 0.012
UCCUCCUACAGGUUGCAUUGUAUUUAGUUA,0.668 ± 0.04,0.0105 ± 0.0028
UCCUGGAACAGCUGUGCAUAGUAUUUAGUUA,0.954 ± 0.048,0.0465 ± 0.012
UCCUCCUACAGGAUGCAUAGUAUUUAGUAA,0.886 ± 0.082,0.0053 ± 0.0013
UCCUGGUACACCUUGCAUAGUAUAUAGUUA,0.555 ± 0.09,0.00685 ± 0.0027
UGGACCUUGUGCUUGCAUAGUAUUUAGUAA,0.348 ± 0.042,0.0178 ± 0.0047
UCCUCCAUCAGCUUGCAUAGUAUUUACAAA,0.204 ± 0.033,0.00387 ± 0.0023
UCCUGGAUCAGCUUGCAUAGUAUUUGGUUA,0.861 ± 0.06,0.037 ± 0.0087
UCCUCCUACAGCAUGCAUAGUAUUAAGUUA,0.682 ± 0.039,0.00593 ± 0.0018
UCCUGGAACAGCUUGCAUUGUAUAUAGUUA,0.279 ± 0.024,0.0152 ± 0.0037
UCCACCUACAGCUGUGCAUAGUAUUUAGUUA,1.02 ± 0.044,0.0243 ± 0.0047
UCCUGCUACAGCUUGCAUAGUUUUUAGUAA,0.133 ± 0.026,0.00676 ± 0.0018
UCCUGGUAGAGCUUGCAUAGUAUUUACUUA,0.0611 ± 0.015,0.0175 ± 0.0032
UCGACGAUCAGCUUGCAUAGUAUUUAGAAA,0.494 ± 0.05,0.0104 ± 0.0033
UCCUGGAUGUGCUUGCAUUGUAUUAAGUUA,0.00888 ± 0.0034,0.00366 ± 0.0026
UCCUGGAUGUGCUUGCAUACUAUUUACUUA,0.0599 ± 0.014,0.00974 ± 0.0027
UCCACCUACAGCUUGCAUAGUAUUUGGUUA,0.555 ± 0.038,0.0358 ± 0.0079
UCCUGGAACAGCUUGCAUAGUAAUUUGUUA,0.203 ± 0.031,0.0165 ± 0.0051
UCGACCUACUGCUUCCAUAGUAUUUAGUUA,0.0526 ± 0.0098,0.00494 ± 0.001
AGGACCUACAGCUUGCAAAGUAUUAAGUUA,0.668 ± 0.053,0.0106 ± 0.0028
UGGAGCUACAGCUAGCAUAGUAUUUAGUUA,1.19 ± 0.05,0.0354 ± 0.0066

Sequence,pre-steady-state target cleavage rate [1],pre-steady-state target cleavage rate [2]
UCGACGUACAGCUUGCAUUGUAUUUAGUUA,0.883 ± 0.027,0.0351 ± 0.0076
UCCUGGUACAGCUUGCAUAGUAUUUAGGUUA,0.2 ± 0.036,0.0317 ± 0.0097
UCCUCCUACAGCUAGCAUAGAAUUUAGUUA,0.271 ± 0.026,0.00634 ± 0.0024
UGGACCUACAGCUUGCAUAGUUUUUAGUAA,0.269 ± 0.018,0.0187 ± 0.0056
AGGUCCUACAGCUUGCAUAGUAUUUUGUUA,0.792 ± 0.049,0.0698 ± 0.014
UGGACCUAGAGCUUGCAUAGUAUAUAGUUA,0.529 ± 0.045,0.0301 ± 0.0071
AGGACCUACAGCUUGCAUAGAAUUUUGUUA,0.501 ± 0.047,0.0183 ± 0.0047
AGGACCUACAGCUUGCAUAUUAUUUAGUUA,1.23 ± 0.074,0.0773 ± 0.017
UCCUCCUACAGCUUGCAUAGUUUUAAGUUA,0.165 ± 0.019,0.00872 ± 0.0018
UGGACGUACAGCUUGCAUAGUAUAUAGUUA,0.673 ± 0.049,0.0417 ± 0.0081
UCCUGGAUGUGCUUGCAUACUAUUUUGUUA,0.0217 ± 0.0069,0.0101 ± 0.0021
UCGACCUACAGCUUGCAUAGUAGUUAGUUA,0.746 ± 0.036,0.0262 ± 0.0058
UCCACCUACAGCUUGGAUAGAAUUUAGUUA,0.296 ± 0.042,0.0112 ± 0.0031
AGGACCUACAGCUAGCAUAGUUUUUAGUUA,0.354 ± 0.024,0.0267 ± 0.0067
UCCUGGAUCAGACUUGCAUAGUAUUUAGUUA,0.795 ± 0.048,0.0245 ± 0.0063
UCCACCUACACGCUUGCAUAGUAUUUAGUUA,0.853 ± 0.041,0.0539 ± 0.01
UCCUCCUACAGCUUGCAUAGUAUAUACUUA,0.183 ± 0.032,0.00579 ± 0.0024
UGGACCUACAGCUAGCAUAGUAUUUACUUA,0.488 ± 0.036,0.0406 ± 0.0082
UCCUGGAUGUCCUUGCAUCGUAUUUAGUUA,0.0131 ± 0.0059,0.00455 ± 0.0017
AGGACCUUCAGCUUGCUUAGUAUUUAGUUA,1.44 ± 0.055,0.0546 ± 0.01
UCGACCUACAGCUUGCAUAGUAUUUAUGUUA,0.543 ± 0.027,0.0467 ± 0.0088
UCCUGGAUGAGCUUGCAUAGUAUAUAGUAA,0.233 ± 0.046,0.00793 ± 0.0037
UCCUGCUAGAGCUUGCAUAGUAUUUUGUUA,0.714 ± 0.069,0.0251 ± 0.0042
UCCUGGAUCAGCUUGCAUAGUAUUUUGUAA,0.269 ± 0.034,0.0158 ± 0.0054
UCCUGCAACAGCUUGCAUAGUAAUUAGUUA,0.917 ± 0.058,0.0258 ± 0.007

Sequence,pre-steady-state target cleavage rate [1],pre-steady-state target cleavage rate [2]
AGGAGGAACAGCUUGCAUAGUAUUUAGUUA,1.41 ± 0.065,0.0955 ± 0.019
UCGACCUAGAGCUUGCAUAGUAUUUACAAA,0.266 ± 0.038,0.0047 ± 0.0028
UCCUGGAAGAGGUUGCAUAGUAUUUAGUUA,0.357 ± 0.03,0.00453 ± 0.0025
UCCUGGAACAGCUUGCAUAGUAUUCAGUUA,0.422 ± 0.044,0.0265 ± 0.0073
UGGACCUACAGCUUGCAUAGUAUUUAUUUA,0.373 ± 0.042,0.0311 ± 0.0059
UGGAGGAACAGCUUGCAUAGUAUUUACAAA,0.216 ± 0.034,0.00526 ± 0.0019
UCGACCUACAGGUUGCAUAGUAUUUAGUAA,1.09 ± 0.06,0.0228 ± 0.005
UCCUGGUACACCUUGCAUAGUAUUUAGUUA,0.244 ± 0.048,0.0185 ± 0.0042
AGGACCUACUGCUUGCAUACUAUUUAGUUA,0.325 ± 0.015,0.0325 ± 0.0055
UCCUCCUACAGCUUGCAUAUAUUUAGUUA,0.395 ± 0.037,0.00226 ± 0.0021
UCCUGGAUGUCCUUGCAUUGUAUUUAGUUA,0.0123 ± 0.0044,0.00432 ± 0.0019
UCCUGGUACAGCUUGCAUAGUAUUUUCUAA,0.176 ± 0.049,0.00327 ± 0.0027
UCCUGGUACAGCAUGCUUAGUAUUUAGUUA,0.609 ± 0.047,0.0178 ± 0.0046
UCCUGCUACAGCUUGCAUAGUAUUAUGUUA,0.452 ± 0.063,0.0114 ± 0.0032
UCCUGCUACAGCUUGGAUAGUUUUUAGUUA,0.277 ± 0.033,0.0227 ± 0.0053
UCCUGGUACAGCUUGCAUAGUAAUUUAGUUA,0.0838 ± 0.011,0.0077 ± 0.0026
UCCUGGAACAGCAUUGCAUAGUAUUUAGUUA,0.854 ± 0.05,0.0321 ± 0.0066
UCCACCUACUGCUAGCAUAGUAUUUAGUUA,0.704 ± 0.032,0.0179 ± 0.0032
UCCUGGAUGUGCUUGCAUAGUUUUUACUUA,0.0121 ± 0.0054,0.00627 ± 0.0027
UCCUGGAUGAGCGUUGCAUAGUAUUUAGUUA,0.528 ± 0.055,0.0119 ± 0.0031
AGGACCUACAGCAAGCAUAGUAUUUAGUAA,0.883 ± 0.086,0.00672 ± 0.0039
UCCUGGAUGAGCUUGCAUAGUGAUUUAGUUA,0.00866 ± 0.0032,0.00335 ± 0.0017
UCCACCUACACCUUGCUUAGUAUUUAGUUA,0.787 ± 0.039,0.0246 ± 0.0038
UCCUGGAUGUCCUUGCAUAGUCAUUUAGUUA,0.00612 ± 0.004,0.00388 ± 0.0036
UCCUGCUACAGCUUCCUUAGUAUUUAGUUA,0.422 ± 0.046,0.00305 ± 0.0021

Sequence,pre-steady-state target cleavage rate [1],pre-steady-state target cleavage rate [2]
UCGACCUACUCGUUGCAUAGUAUUUAGUUA,1.03 ± 0.035,0.022 ± 0.0041
UCCUGCUACAGCUUGCAUAGUAUUUACAAA,0.309 ± 0.046,0.0049 ± 0.0034
UCCUCCUACAGCUUCAUAGUAUUUAGUUA,0.88 ± 0.031,0.00715 ± 0.0016
UCCUGGAACAGCUUGCAUAGUAUUUAGUUC [g2:g23:cont:t1C],0.368 ± 0.052,0.025 ± 0.0055
UCGACCUACAGCUACCAUAGUAUUUAGUUA,0.559 ± 0.035,0.00309 ± 0.0028
UCCUGGAACAGCUUGCAUAGUAUUGUAGUUA,0.368 ± 0.022,0.0236 ± 0.0056
UCCUGGAUGACCUUGCAUAGUAUAUAGUUA,0.0296 ± 0.011,0.00883 ± 0.0043
UCCACCUACUGCUUGCAUAGAAUUUAGUUA,0.313 ± 0.027,0.0147 ± 0.0038
UCCACCAACAGCUUGCAUUGUAUUUAGUUA,1.01 ± 0.034,0.028 ± 0.0067
AGGACCUUCAGCUUGCAUAGUAUUUACAAA,0.378 ± 0.043,0.01 ± 0.0026
UCCUGGAACAGCGUUGCAUAGUAUUUAGUUA,0.939 ± 0.055,0.0303 ± 0.0056
UGGACCUACAGCUAGCAUAGUAUUUUGUUA,0.906 ± 0.058,0.016 ± 0.0031
UCCUCCUACAGCUUGCAUAGUGAUUUAGUUA,0.0757 ± 0.012,0.00444 ± 0.002
UCCUGGAACAGCAUGCAUAGAAUUUAGUUA,0.299 ± 0.04,0.00996 ± 0.0027
AGGACCUAGAGCUUGCAUACUAUUUAGUUA,0.134 ± 0.013,0.0182 ± 0.0037
UCCACCUACAGCUUGCAAAGUAUUUAGAUA,0.372 ± 0.053,0.011 ± 0.0024
AGGACCUAGAGCUUGCUUAGUAUUUAGUUA,1.28 ± 0.07,0.0372 ± 0.0089
UCCUCCUAGAGCUUGCAUAGUAUUUUGUUA,0.894 ± 0.12,0.0203 ± 0.0034
UCCUGGUACAGCUUGCAAUAGUAUUUAGUUA,0.0375 ± 0.0098,0.00446 ± 0.0028
UCGACCUACAGCUUGCAUAGUAUUUUGUUA,0.921 ± 0.043,0.0471 ± 0.0091
UCGACCUACAGCUUGCAUAGUAUUUUCUUA,0.331 ± 0.037,0.0352 ± 0.0091
UCGACCUACAGCUUGCAUACUAUUUAGAUA,0.113 ± 0.021,0.0116 ± 0.0026
UCCUCCUACAGCCUGCAUAGUAUUUAGUUA,1.18 ± 0.038,0.056 ± 0.0094
UCGACCUACUCCUUGCAUAGUAUUUACAAA,0.198 ± 0.026,0.00399 ± 0.0016
UCCUGCAUCAGCUUGCAUAGUAUUUAGUUA,1.2 ± 0.066,0.0666 ± 0.014

# From the supplement of paper PMC10338343
